Results published in the supplement of paper PMC7125110.
± gives the standard error. Variants at the background level are over-represented here.

B1: glmS ribozyme (parent)
chain: AUAAAAGCGCCAGAACUACAGAAAUGUAGUUGACGAGGAGGAGGUUUAUCGAAUUUUCGGCGGAUGCCUCCAAA

Legend:
Conditions in all cases: with glucosamine-6-phosphate
[1] = variants of: B1; assay: self-cleavage kobs at 40 uM GlcN6P; higher = faster cleavage; RNA array
Method in brief: (§1)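 Ribozyme variants carrying barcodes were transcribed in situ on sequenced MiSeq chips by E. coli RNA polymerase and tracked at 37 °C with a hybridised Cy3 probe. They were exposed to 40 μM to 10 mM glucosamine-6-phosphate in HEPES/KCl/Mg(OAc)2 buffer. kobs came from exponential decay fits of normalised per-tile medians, and kcat and KM from weighted Michaelis–Menten fits.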

[2] = variants of: B1; assay: self-cleavage kobs at 640 uM GlcN6P; higher = faster cleavage; RNA array
Method in brief: as §1

[3] = variants of: B1; assay: self-cleavage kobs at 160 uM GlcN6P; higher = faster cleavage; RNA array
Method in brief: as §1

[4] = variants of: B1; assay: self-cleavage kobs at 2500 uM GlcN6P; higher = faster cleavage; RNA array
Method in brief: as §1

[5] = variants of: B1; assay: self-cleavage kobs at 10000 uM GlcN6P; higher = faster cleavage; RNA array
Method in brief: as §1

| Variant | self-cleavage kobs at 40 uM GlcN6P [1] [s⁻¹] | self-cleavage kobs at 640 uM GlcN6P [2] [s⁻¹] | self-cleavage kobs at 160 uM GlcN6P [3] [s⁻¹] | self-cleavage kobs at 2500 uM GlcN6P [4] [s⁻¹] | self-cleavage kobs at 10000 uM GlcN6P [5] [s⁻¹] |
| --- | --- | --- | --- | --- | --- |
| AUAAAAGCGCCAGAACUACAGAAAUGUAGUUGACGAGGAGGAGUUUUAUCGAAUUUUCGGCGGACGCCUCCAAA [G44U U65C] | < 1e-05 | < 1e-05 | < 1e-05 | < 1e-05 | < 1e-05 |
| AUAAAAGCGCCAGAACUACAGAAAUGUAGUUGACGAGGAGGAGUUUUAUCGAAUUUUCGGCGGAUGCCGCCAAA [G44U U69G] | < 1e-05 | < 1e-05 | < 1e-05 | < 1e-05 | < 1e-05 |
| AUAAAAGCGCCAGAACUACAGAAAUGUAGUUGACGAGGAGGAGGAUUAUCGACUUUUCGACGGAUGCCUCCAAA [U45A A53C G60A] | < 1e-05 |  |  |  |  |
| AUAAAAGCGCCAGAACUACAGAAAUGUAGUUGACGAGGAGGAGGAUUAUCGAGUGUUCGGCGGAUGCCUCCAAA [U45A A53G U55G] | 0.00113 ± 0.00021 |  |  |  | 0.0551 ± 0.018 |
| AUAAAAGCGCCAGAACUACAGAAAUGUAGUUGACGAGGAGGAGGAUUAUCGAAUUUUCGGCGGCUGCCUGCAAA [U45A A64C C70G] | < 1e-05 |  |  | < 1e-05 |  |
| AUAAAAGCGCCAGAACUACAGAAAUGUAGUUGACGAGGAGGAGGAUUAUCGAAUUUUCGGCGGGUGCCUCCAAA [U45A A64G] | 0.000998 ± 0.00025 | 0.0143 ± 0.0033 | 0.00526 ± 0.0021 |  | 0.015 ± 0.004 |
| AUAAAAGCGCCAGAACUACAGAAAUGUAGUUGACGAGGAGGAGGAUUAUUGAAGUUUCGGCGGAUGCCUCCAAA [U45A C50U U54G] | < 1e-05 |  |  |  |  |
| AUAAAAGCGCCAGAACUACAGAAAUGUAGUUGACGAGGAGGAGGAUUAUCGAAUUUUCGGCGGAUGACUCCAAA [U45A C67A] | 0.000364 ± 5.5e-05 |  |  | 0.00568 ± 0.0022 | 0.00719 ± 0.0014 |
| AUAAAAGCGCCAGAACUACAGAAAUGUAGUUGACGAGGAGGAGGAUUAUCGAAUUUUCGGCGGAUGCCUCAAAA [U45A C71A] | 0.00019 ± 3.7e-05 | 0.000907 ± 0.00022 | 0.000518 ± 0.00016 |  |  |
| AUAAAAGCGCCAGAACUACAGAAAUGUAGUUGACGAGGAGGAGGAUUAUCGAAUUUUCGGCGGAUGCCUCUAAA [U45A C71U] | 0.00126 ± 0.00019 | 0.012 ± 0.0029 | 0.00507 ± 0.00093 |  | 0.0584 ± 0.019 |
| AUAAAAGCGCCAGAACUACAGAAAUGUAGUUGACGAGGAGGAGGAUUAUCGAAUUUUCGGCCGAUGCCUCCAAA [U45A G62C] | < 1e-05 |  |  | < 1e-05 |  |
| AUAAAAGCGCCAGAACUACAGAAAUGUAGUUGACGAGGAGGAGGAUUAUCGAAUUUUCGGCGAAUGCCUCCAAA [U45A G63A] | < 1e-05 | < 1e-05 | < 1e-05 |  | < 1e-05 |
| AUAAAAGCGCCAGAACUACAGAAAUGUAGUUGACGAGGAGGAGGAUUAACGAAUUUUCGGCGGAUGCCUCCAAA [U45A U49A] | < 1e-05 |  | < 1e-05 | < 1e-05 |  |
| AUAAAAGCGCCAGAACUACAGAAAUGUAGUUGACGAGGAGGAGGAUUAUCGAAUUCUCGGCGGAUGCCUCCAAA [U45A U56C] | 7.22e-05 ± 1e-05 | 0.0014 ± 0.00014 | 0.000234 ± 3.5e-05 | 0.00259 ± 0.00069 | 0.00411 ± 0.00072 |
| AUAAAAGCGCCAGAACUACAGAAAUGUAGUUGACGAGGAGGAGGCUUAUCGCAUUUUCGGCGGAUGCCUCCAAA [U45C A52C] | < 1e-05 |  |  | < 1e-05 | < 1e-05 |
| AUAAAAGCGCCAGAACUACAGAAAUGUAGUUGACGAGGAGGAGGCUUAUAGAAUUUUCGGCGGAUGCCUCCAAA [U45C C50A] | < 1e-05 |  |  |  | < 1e-05 |
| AUAAAAGCGCCAGAACUACAGAAAUGUAGUUGACGAGGAGGAGGCUUAUGGAAUUUUCGGCGGAUGCCUCCAAA [U45C C50G] | < 1e-05 |  |  |  |  |
| AUAAAAGCGCCAGAACUACAGAAAUGUAGUUGACGAGGAGGAGGCUUAUCGAAUUUUCGGCGGAUGCGUCCAAA [U45C C68G] | < 1e-05 |  |  |  |  |
| AUAAAAGCGCCAGAACUACAGAAAUGUAGUUGACGAGGAGGAGGCUUAUCAAAUUUUCGGCGGAUGCCUCCAAA [U45C G51A] | < 1e-05 | < 1e-05 |  | < 1e-05 | < 1e-05 |
| AUAAAAGCGCCAGAACUACAGAAAUGUAGUUGACGAGGAGGAGGCUUAUCGAAUUUUCGUCGGGUGCCUCGAAA [U45C G60U A64G C71G] | < 1e-05 | < 1e-05 |  | < 1e-05 | < 1e-05 |
| AUAAAAGCGCCAGAACUACAGAAAUGUAGUUGACGAGGAGGAGGCAUAUCGAAUUUUCGGCGGAUGCCUCCAAA [U45C U46A] | < 1e-05 |  |  |  |  |
| AUAAAAGCGCCAGAACUACAGAAAUGUAGUUGACGAGGAGGAGGCUUAUCGAAUUUCCGGCGGAUGCCUCCAAA [U45C U57C] | < 1e-05 |  | < 1e-05 |  |  |
| AUAAAAGCGCCAGAACUACAGAAAUGUAGUUGACGAGGAGGAGGGUUUUCGAAUUUUCGGCGGAUGCCUCGAAA [U45G A48U C71G] | < 1e-05 |  |  |  |  |
| AUAAAAGCGCCAGAACUACAGAAAUGUAGUUGACGAGGAGGAGGGUUAUCGAGUUUUCGGAGGAUGCCUCCAAA [U45G A53G C61A] | < 1e-05 |  |  |  | < 1e-05 |
| AUAAAAGCGCCAGAACUACAGAAAUGUAGUUGACGAGGAGGAGGGUUAUCGAAUUUUCGGCGGUUGCGUCUAAA [U45G A64U C68G C71U] | < 1e-05 |  |  |  |  |
| AUAAAAGCGCCAGAACUACAGAAAUGUAGUUGACGAGGAGGAGGGUUAUUGAUUUUUCGGCGGAUGCCUCCAAA [U45G C50U A53U] | < 1e-05 |  |  |  |  |
| AUAAAAGCGCCAGAACUACAGAAAUGUAGUUGACGAGGAGGAGGGUUAUCGAAUUUUCGGCGGAUGCAUCCAAA [U45G C68A] | < 1e-05 |  |  |  |  |
| AUAAAAGCGCCAGAACUACAGAAAUGUAGUUGACGAGGAGGAGGGUUAUCGAAUUUUCGGCGGAUGCCUCUAAA [U45G C71U] | 0.000147 ± 1.7e-05 | 0.00152 ± 0.00031 | 0.000517 ± 8.8e-05 | 0.00519 ± 0.00062 | 0.00653 ± 0.0008 |
| AUAAAAGCGCCAGAACUACAGAAAUGUAGUUGACGAGGAGGAGGGUUAUCAAAUUUGCGGCCGAUCCCUCCAAA [U45G G51A U57G G62C G66C] | < 1e-05 |  |  |  | < 1e-05 |
